# Laboratory results as given in the supplement of paper PMC8728848.
# This is one part of the list.
# B1: CaSRK1 (Capsicum annuum) (protein)
# chain: MALCKIFPFAFILLSCSCYLISGQRFDYPTANLSTTWINSVSAPHSIDYTDGSRIRAILLRGTFGPRYACGFYCNGNCESYLFAIFIVQTNSASQITSPAIGFPQVVWSANRNNPVKINSTLQLTAEGDLVLRDADGTLAWSTNTAGKSVAGLSLTDEGNLALFDSKNATVWQSFDHPTDALVPGQKLVPGMKLTASVSRTNWTAGGLFALSAIDNGLVAFVESNPPQKYFEASVGGSNTSGGSNYVKYLNGSLTLFTHSADTTELILISITPASSAQYMKLESNGHLKVYEWTSRGWREVDDLLTGFRGECNYPTVCGRYGICTMGQCSCPTSSSSRTYFRPIDVRRPSLGCSEVTKLTCQNTKKHSPLEVEDVDYFAFKAGISDTDLNTCKRACLEKCSCKAAFFRSGLNSSRTRGDCYLPTEIFSIMNNEKDRTRYDSVAFIKVQV
# How the values were obtained:
# Assay in all cases: glycan array binding signal (z-score within array); higher = stronger binding
# Conditions in all cases: glycan notation: IUPAC condensed, linker removed
# [1] = biological target: Neu5Ac(a2-3)Gal(b1-4)GlcNAc(b1-6)[Gal(b1-3)]GalNAc
# Summary of the method: (§1)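 Negative Z-scores can be read as non-binding. The Z-score is calculated within each array and then averaged across arrays of one protein sequence at different concentrations or buffers and across linkers. Arrays, 3228 in all, were curated from the Consortium for Functional Glycomics database and kept only where the protein sequence was available.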
# [2] = biological target: Neu5Ac(a2-3)Gal(b1-4)GlcNAc(b1-6)[Neu5Ac(a2-3)Gal(b1-3)]GalNAc
# Summary of the method: as §1
# [3] = biological target: Neu5Ac(a2-3)Gal(b1-4)GlcNAc6S
# Summary of the method: as §1
# [4] = biological target: Neu5Ac(a2-3)Gal(b1-4)[Fuc(a1-3)]GlcNAc
# Summary of the method: as §1
# [5] = biological target: Neu5Ac(a2-3)Gal(b1-4)[Fuc(a1-3)]GlcNAc(b1-2)Man
# Summary of the method: as §1
# [6] = biological target: Neu5Ac(a2-3)Gal(b1-4)[Fuc(a1-3)]GlcNAc(b1-3)Gal
# Summary of the method: as §1
# [7] = biological target: Neu5Ac(a2-3)Gal(b1-4)[Fuc(a1-3)]GlcNAc(b1-3)Gal(b1-4)GlcNAc
# Summary of the method: as §1
# [8] = biological target: Neu5Ac(a2-3)Gal(b1-4)[Fuc(a1-3)]GlcNAc(b1-3)Gal(b1-4)[Fuc(a1-3)]GlcNAc(b1-3)Gal(b1-4)[Fuc(a1-3)]GlcNAc
# Summary of the method: as §1
# [9] = biological target: Neu5Ac(a2-3)Gal(b1-4)[Fuc(a1-3)]GlcNAc(b1-3)GalNAc
# Summary of the method: as §1
# [10] = biological target: Neu5Ac(a2-3)Gal(b1-4)[Fuc(a1-3)]GlcNAc(b1-6)[Gal(b1-3)]GalNAc
# Summary of the method: as §1
# [11] = biological target: Neu5Ac(a2-3)Gal(b1-4)[Fuc(a1-3)]GlcNAc(b1-6)[Neu5Ac(a2-3)Gal(b1-3)]GalNAc
# Summary of the method: as §1
# [12] = biological target: Neu5Ac(a2-3)Gal(b1-4)[Fuc(a1-3)]GlcNAc6S
# Summary of the method: as §1
# [13] = biological target: Neu5Ac(a2-3)Gal6S(b1-4)GlcNAc
# Summary of the method: as §1
# [14] = biological target: Neu5Ac(a2-3)Gal6S(b1-4)[Fuc(a1-3)]GlcNAc
# Summary of the method: as §1
# [15] = biological target: Neu5Ac(a2-3)GalNAc
# Summary of the method: as §1
# [16] = biological target: Neu5Ac(a2-3)GalNAc(b1-4)GlcNAc
# Summary of the method: as §1
# [17] = biological target: Neu5Ac(a2-3)[GalNAc(b1-4)]Gal(b1-4)Glc
# Summary of the method: as §1
# [18] = biological target: Neu5Ac(a2-3)[GalNAc(b1-4)]Gal(b1-4)GlcNAc
# Summary of the method: as §1
# [19] = biological target: Neu5Ac(a2-3)[GalNAc(b1-4)]Gal(b1-4)GlcNAc(b1-3)GalNAc
# Summary of the method: as §1
# [20] = biological target: Neu5Ac(a2-3)[Neu5Ac(a2-6)]GalNAc
# Summary of the method: as §1
# [21] = biological target: Neu5Ac(a2-6)Gal
# Summary of the method: as §1
# [22] = biological target: Neu5Ac(a2-6)Gal(b1-3)GlcNAc(b1-3)[Gal(b1-4)GlcNAc(b1-6)]Gal(b1-4)Glc
# Summary of the method: as §1
# [23] = biological target: Neu5Ac(a2-6)Gal(b1-4)Glc
# Summary of the method: as §1
# [24] = biological target: Neu5Ac(a2-6)Gal(b1-4)GlcNAc
# Summary of the method: as §1
# [25] = biological target: Neu5Ac(a2-6)Gal(b1-4)GlcNAc(b1-2)Man
# Summary of the method: as §1
# [26] = biological target: Neu5Ac(a2-6)Gal(b1-4)GlcNAc(b1-2)Man(a1-3)Man(b1-4)GlcNAc(b1-4)GlcNAc
# Summary of the method: as §1
# [27] = biological target: Neu5Ac(a2-6)Gal(b1-4)GlcNAc(b1-2)Man(a1-3)[Gal(b1-4)GlcNAc(b1-2)Man(a1-6)]Man(b1-4)GlcNAc(b1-4)GlcNAc
# Summary of the method: as §1
# [28] = biological target: Neu5Ac(a2-6)Gal(b1-4)GlcNAc(b1-2)Man(a1-3)[GlcNAc(b1-2)Man(a1-6)]Man(b1-4)GlcNAc(b1-4)GlcNAc
# Summary of the method: as §1
# [29] = biological target: Neu5Ac(a2-6)Gal(b1-4)GlcNAc(b1-2)Man(a1-3)[GlcNAc(b1-4)][Neu5Ac(a2-6)Gal(b1-4)GlcNAc(b1-2)Man(a1-6)]Man(b1-4)GlcNAc(b1-4)GlcNAc
# Summary of the method: as §1
# [30] = biological target: Neu5Ac(a2-6)Gal(b1-4)GlcNAc(b1-2)Man(a1-3)[Man(a1-6)]Man(b1-4)GlcNAc(b1-4)GlcNAc
# Summary of the method: as §1
binder,measurement,setting,value
B1,glycan array binding signal (z-score),[1],2.25
same,glycan array binding signal (z-score),[2],-0.424
same,glycan array binding signal (z-score),[3],-0.363
same,glycan array binding signal (z-score),[4],-0.511
same,glycan array binding signal (z-score),[5],-0.371
same,glycan array binding signal (z-score),[6],-0.598
same,glycan array binding signal (z-score),[7],-0.22
same,glycan array binding signal (z-score),[8],0.059
same,glycan array binding signal (z-score),[9],0.27
same,glycan array binding signal (z-score),[10],-0.531
same,glycan array binding signal (z-score),[11],-0.288
same,glycan array binding signal (z-score),[12],-0.426
same,glycan array binding signal (z-score),[13],-0.497
same,glycan array binding signal (z-score),[14],-0.236
same,glycan array binding signal (z-score),[15],0.135
same,glycan array binding signal (z-score),[16],-0.332
same,glycan array binding signal (z-score),[17],-0.515
same,glycan array binding signal (z-score),[18],-0.414
same,glycan array binding signal (z-score),[19],-0.173
same,glycan array binding signal (z-score),[20],0.188
same,glycan array binding signal (z-score),[21],-0.452
same,glycan array binding signal (z-score),[22],-0.063
same,glycan array binding signal (z-score),[23],-0.466
same,glycan array binding signal (z-score),[24],-0.264
same,glycan array binding signal (z-score),[25],-0.42
same,glycan array binding signal (z-score),[26],-0.527
same,glycan array binding signal (z-score),[27],-0.423
same,glycan array binding signal (z-score),[28],-0.609
same,glycan array binding signal (z-score),[29],-0.579
same,glycan array binding signal (z-score),[30],-0.539
